Data on 41 compounds can be found in ChEMBL document CHEMBL4888484, “Replenishing the malaria drug discovery pipeline: Screening and hit evaluation of the MMV Hit Generation Library 1 (HGL1) against asexual blood stage Plasmodium falciparum ,using a nano luciferase reporter read-out” (2022).

Out of some 150,000 compounds screened, about 540 (0.36%) showed an effect of 50% or more. Some of the results follow.

The subject of the assay is Plasmodium falciparum. As to the kind of experiment: Primary screen in NF54 nanoGlo assay, in single point, at 2uM, 72h; a lower Z score goes with more inhibition. To be noted: timepoint 72 hour. The format is functional, Erythrocyte.
Regarding `CCNS(=O)(=O)c1cnc(C(F)(F)F)c(C(=O)OCC)c1`, the % Inhibition (in general, the change of the read-out against control, counted positive when it falls) came to 2% and the Z score is reported as -0.19.

In the case of `Cc1cc2c(C)nc(N3CCC(NC[C@H](C)Oc4cccnc4)CC3)nc2cc1F`, the “% Inhibition” value is on record as 2% and the Z score was -0.23.

Regarding `Cc1noc(-c2cccc(=O)n2CC(=O)Nc2ccc(C)c(C)c2)n1`, the “% Inhibition” value was -12% and the Z score was found to be 1.95.

Take `Cc1c(NC(=O)CN2CCN(c3ccccc3F)CC2)c(=O)n(-c2ccccc2)n1C`: the “% Inhibition” value was 7% and the Z score was -1.34.

Turning to `Cc1nn(C)c(C)c1CN(CCC(=O)Nc1nccs1)C(C)C`, the “% Inhibition” value is reported as -4% and the Z score is 0.61.

For `COCC1(NC(=O)Nc2cccc(CC(=O)OC)n2)CCC1`, the “% Inhibition” value is on record as -4% and the Z score turned out to be 0.83.

Take `NC[C@H]1Cc2cccc(-c3cc(N4CCOCC4)ncn3)c2O1`: the “% Inhibition” value is on record as -7% and the Z score came to 0.9.

Regarding `CN(C)c1nc(C2CC(N)C2)cc(N2CCC(F)(F)CC2)n1` (configuration not stated), the “% Inhibition” value was -10% and the Z score came to 0.97.

Regarding `Cc1cc(NC(=O)[C@H](C)c2ccccc2)cnc1C(F)(F)F`, the “% Inhibition” value was found to be 6% and the Z score is given as -0.8.

Turning to `COc1ccc(N2CCN(CC(=O)NCc3ccncc3)C2=O)cc1`, the “% Inhibition” value is -1% and the Z score is recorded as 0.15.

In the case of `COc1ccc(N2CCN(C(=O)CCN3C(=O)c4ccccc4C3=O)CC2)cc1`, the “% Inhibition” value was -8% and the Z score worked out at 0.91.

With `C[C@@H](CCCc1ccccc1)C(=O)Nc1nccn(C)c1=O`, the “% Inhibition” value is 3% and the Z score was -0.38.

Regarding `CCc1ccc(CN(C)CCc2c[nH]c(=O)n(C)c2=O)nc1`, the “% Inhibition” value was 5% and the Z score is -0.7.

With `O=C(c1cccc(-c2ncccn2)c1)N1CCN(Cc2nnc[nH]2)CC1`, the “% Inhibition” value is -2% and the Z score was found to be 0.33.

With `CCc1nnc(CN(CC)Cc2c[nH]c(C)n2)o1`, the “% Inhibition” value is on record as -2% and the Z score stood at 0.31.

For `O=C(N[C@@H](N1CCN(c2ccccc2)CC1)C(Cl)(Cl)Cl)c1cccs1`, the “% Inhibition” value is listed as -4% and the Z score came out at 0.49.

Turning to `CC(C)n1nccc1-c1ccc(N2CCOCC2)cc1`, the “% Inhibition” value is given as -9% and the Z score is 1.81.

For `CS(=O)(=O)N1C[C@H]2CCN(Cc3ccc(F)c(F)c3)C[C@@]2(CO)C1`, the “% Inhibition” value is given as -16% and the Z score is 1.92.

As for `c1ccc(-c2nc(CNc3nnn[nH]3)cs2)nc1`, the “% Inhibition” value is on record as -2% and the Z score is given as 0.25.

As for `COc1ccc(Cn2cnn(C(C)(C)C)c2=O)cn1`, the “% Inhibition” value is recorded as -3% and the Z score is recorded as 0.37.

In the case of `COc1ccc2c(c1)[C@@H](NC(=O)Cc1c(C)n[nH]c1C)CC(C)(C)O2`, the “% Inhibition” value came to 6% and the Z score is -0.78.

Take `NC(=O)c1cc(CNC(=O)c2occ3c2CCOC3)n2c1CCCC2`: the “% Inhibition” value is -6% and the Z score is listed as 0.7.

As to `Cc1ccc(S(N)(=O)=O)c(C(=O)N2CCC[C@H](C3CCC3)CC2)c1`, the “% Inhibition” value is -10% and the Z score is 1.46.

On to `COc1cccc(-n2nc(C(=O)N3CCN(C(C)=O)CC3)c(=O)n(Cc3ccccc3Cl)c2=O)c1`, for which the “% Inhibition” value is recorded as -12% and the Z score is listed as 1.86.

Take `O=C(NCc1ccccn1)c1nn[nH]c1Nc1ccccc1F`: the “% Inhibition” value was determined as 1% and the Z score is listed as -0.11.

In the case of `Cc1cc(C)cc(OCc2noc(CN(C)C3(C(N)=O)CCCC3)n2)c1`, the “% Inhibition” value is recorded as -4% and the Z score turned out to be 0.56.

For `C[C@@H](c1nc(-c2cccs2)no1)N1CCc2cncnc2C1`, the “% Inhibition” value is on record as -10% and the Z score was 1.05.

Consider `O=C(O)[C@H]1CC[C@@H](C(=O)N2CCc3c(Cl)cccc32)C1`, for which the “% Inhibition” value is reported as -12% and the Z score is on record as 2.4.

For the compound `O=C(CCc1cccc2ccccc12)NCCN1CCOCC1`, the “% Inhibition” value came to 3% and the Z score is on record as -0.58.

On to `NC(=O)C1CCCCC1Nc1nccc(C(F)(F)F)n1` (configuration not stated), for which the “% Inhibition” value is -2% and the Z score was found to be 0.24.

Regarding `O=S(=O)(NCc1cc2n(n1)CCCNC2)c1cc(Cl)c(Cl)s1`, the “% Inhibition” value is -21% and the Z score is given as 2.66.

Turning to `COc1ccc(NC(=O)Cn2cnc3c(nc4n3CCCCC4)c2=O)cc1`, the “% Inhibition” value was -4% and the Z score stood at 0.6.

As to `CN(CCn1cc(Cl)cn1)Cc1cnccn1`, the “% Inhibition” value is on record as -14% and the Z score stood at 1.55.

Take `COc1ccc(-c2cncc(CN3CCCC3)c2)cc1OC`: the “% Inhibition” value is on record as -9% and the Z score came to 1.71.

Regarding `CN1C(=O)CC[C@H](NC(=O)c2cc3c([nH]2)CCCC3)C1=O`, the “% Inhibition” value is -13% and the Z score stood at 1.75.

Turning to `C[C@@H](C(=O)NCc1cccs1)S(=O)(=O)c1cccc(Cl)c1`, the “% Inhibition” value is listed as -9% and the Z score came to 1.86.

In the case of `CCN(C(=O)CCc1ccccn1)[C@@H](C)c1cccc(O)c1`, the “% Inhibition” value was -13% and the Z score worked out at 1.22.

As to `Cc1ccc(N2CCC(NCCc3csc(-c4ncccn4)n3)CC2)cc1`, the “% Inhibition” value is given as -9% and the Z score was found to be 1.91.

As to `Oc1cccc(CN(Cc2cccnc2)C2CCC(O)CC2)c1` (configuration not stated), the “% Inhibition” value is reported as -19% and the Z score is reported as 2.68.

`Cc1cc(C)c(-c2nccn2CCN(C)C)cc1Cn1cncn1`: the “% Inhibition” value is on record as -9% and the Z score is reported as 1.45.

Take `CCCCC(C(=O)N1CCN(CC(=O)N2CCCCC2C)CC1)N1CCCS1(=O)=O` (configuration not stated): the “% Inhibition” value is listed as -3% and the Z score came to 0.38.
